Assay results taken from PubChem BioAssay (NCATS).
Inconclusive means that the source gave no clear call. Such entries were picked first, then a sample of the others. Where the call is inconclusive, the potency comes from a doubtful curve fit. The source made the active and inactive calls. Calls follow the shape of the dose curve; as a rule, active = well fitted cell-killing curve with a large enough effect; inconclusive = small, poorly fitted or top-dose-only effect, or effect the other way; inactive = flat fitted curve, though single readings scatter.

test system: Tov112D; experiment: Primary qHTS to identify gynecologic anti-cancer compounds using libraries of approved drugs and bioactive compounds (AID 1345084); conditions: Gynecologic cancer cell panel viability, ATPlite luminescence, 48 h; series mostly up to 57.5 µM; also: nearly all actives have a fitted effect of over 55% in size
Procedure, shortened: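 In this quantitative HTS, cell killing is estimated from loss of ATP-dependent luciferase light. Cells see five compound concentrations over a 48 h exposure.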
% is scaled to controls: 0 for no effect and ±100 for the full control effect; potency is read from the fitted curve at half-maximal effect; tags tell the direction and shape of the fitted curve.

| Compound | Potency | activity change, negative = cytotoxicity |
| --- | --- | --- |
| N[C@@H](Cc1ccc(N(CCCl)CCCl)cc1)C(=O)O | inconclusive: 39.8 µM [cytotoxic, single point] | – |
| C=C1[C@@H](O)[C@]2(O)OC[C@]34C2[C@]2(C)C(C[C@H]3OC(=O)[C@H](O)[C@@]14O)C(C)=CC(=O)[C@H]2O (stereo partly drawn) | inconclusive: 17.8 µM [cytotoxic, partial curve, poor fit] | – |
| COC1CC(OC2CCC3(C)C(=CCC4C3CCC3(C)C(C(C)OC5OC(COC6OC(CO)C(O)C(O)C6O)C(O)C(O)C5O)CCC43O)C2)OC(C)C1OC1OC(C)C(O)C(OC)C1O (stereo not drawn) | – | inactive: -0.166% [at 11.6 µM] |
